For 120 sequences, switch fluorescence ratio results are on record in the supplement of paper PMC10126150.

Values marked as one replicate rest on one cluster of the flow cell; about a third of the high ones do not repeat.
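Also: ATP exposure 15 min at 22 °C before imaging.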

The subject of the series is ATP. Put plainly: switch fluorescence ratio, 500 uM ATP over buffer (Cy3 cluster intensity, sum of 5 cycles each) (fold (ratio)); higher = stronger signal-on switching upon ATP binding; sequences stand for … in TCGTCGGCAGCGTCAGATGTGTATAAGAGACAGTTTTTTTTTTTTTTTTTTTTTTTTT…TC. To be noted: aptamer strand: ATP DNA aptamer (quencher-CACCTGGGGGAGTATTGCGGAGGAAGG + anchor), 100 nM annealed; ATP concentration: 500 uM; one replicate. In outline:
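The quencher-labelled ATP aptamer, at 100 nM, was annealed to Cy3-labelled switching-strand clusters on a modified Illumina MiSeq flow-cell. The clusters were imaged in selection buffer, then after 15 min with 500 uM ATP at 22 °C, and this buffer/ATP cycle ran five times with NaOH stripping and re-annealing between runs. Per-cluster fluorescence ratios, summed target-cycle over summed buffer-cycle Cy3 intensity, were averaged per switch-domain sequence. Clusters outside 100-1000 RFU were excluded.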
Take GCTCGTTATG: the switch fluorescence ratio was 0.957.
Consider GGCGATCGGT, for which the switch fluorescence ratio was found to be 1.05.
With GAACCAGGAT, the switch fluorescence ratio is 1.13.
As for TAAGCAAGCG, the figure is 1.59.
As for AGGTAGACTG, the figure is 1.02; as for GTGTCGTCTG, 1.01.
Turning to TCGGCTGAGA, the switch fluorescence ratio was determined as 0.985.
As for AGCGGCTACC, the switch fluorescence ratio turned out to be 1.07.
Consider CACACAATAT, for which the switch fluorescence ratio stood at 1.35.
In the case of GCGACTAGG, the switch fluorescence ratio came to 1.02.
GGACCAATTC: the switch fluorescence ratio turned out to be 1.13.
For CCGCAACGGA, the switch fluorescence ratio was determined as 2.12.
On to AAGTGCAATT, for which the switch fluorescence ratio worked out at 1.03.
TGGTGGACCT: the switch fluorescence ratio worked out at 1.15.
As to ACGCCCTTTG, the switch fluorescence ratio is 1.63.
As for TCCATGTAAG, the figure is 0.977; as for AAAGTGCTGG, 0.993; as for TTGTCTTAGG, 1.04.
As for TACATTCAGC, the figure is 1.01; as for GCACATGCTT, 1.08; as for GACACAGGGC, 1.21.
Take AGTAGACACT: the switch fluorescence ratio was 1.04.
As for GACTCAAAAT, the figure is 1.08; as for GAGGACGGCG, 0.952.
As to ATTAATTC, the switch fluorescence ratio came to 1.02.
As for GATTAGTTTA, the switch fluorescence ratio was found to be 0.997.
In the case of ATGGCGCTGT, the switch fluorescence ratio was 0.964.
For the sequence GGCAGCCCGT, the switch fluorescence ratio turned out to be 1.01.
ATGACATGCA: the switch fluorescence ratio turned out to be 1.02.
In the case of GTTTCTGTGA, the switch fluorescence ratio was determined as 0.977.
Regarding GACCCGACGT, the switch fluorescence ratio is 1.28.
Consider ACATACTATT, for which the switch fluorescence ratio is 1.3.
Take TGAATCCG: the switch fluorescence ratio came out at 1.02.
For GAACGGTTTT, the switch fluorescence ratio came out at 1.03.
Next, AAACGTCTTT: 0.998; ACGTGTAAGA: 0.962.
Next, TTTACTAGCT: 1.05.
For the sequence GCTCATGAGT, the switch fluorescence ratio was determined as 0.966.
In the case of TTATTAGGTG, the switch fluorescence ratio is 1.2.
For CCATTGTCGA, the switch fluorescence ratio came out at 1.01.
For the sequence GCTTGGTAAC, the switch fluorescence ratio was 1.04.
As for GCAGATATTC, the switch fluorescence ratio worked out at 1.04.
As for AGCGCTTGAA, the figure is 0.992.
Consider CCAGGGTGAT, for which the switch fluorescence ratio is 1.5.
In the case of AACACGTTCC, the switch fluorescence ratio was 2.31.
Next, ATGTCGGGGT: 1.04; ACAGGGCTTC: 1.01; TATGTTACGT: 1.05.
On to TACAGAGCGG, for which the switch fluorescence ratio came out at 1.03.
For the sequence AATTCGTACC, the switch fluorescence ratio was 1.16.
As for CTTGGATAAA, the figure is 0.997; as for AGAGGTTCTG, 0.997.
TATTCGTTTG: the switch fluorescence ratio came to 1.04.
With AGGCCTTCTC, the switch fluorescence ratio turned out to be 1.23.
With CAGATAGGGT, the switch fluorescence ratio was 0.976.
Next, GCGGCGCTGG: 0.982; CCCGGGCTT: 1.02; TTAATGGG: 1.
For GACGCACAAT, the switch fluorescence ratio is 1.61.
As to TCCGGTGAAG, the switch fluorescence ratio is 1.01.
Consider TTCACAGCTA, for which the switch fluorescence ratio came to 1.21.
For AGACAAGTAG, the switch fluorescence ratio came to 0.966.
Regarding ACTCGGAGCT, the switch fluorescence ratio is 1.15.
As for GCCCCCGTCC, the figure is 1.22; as for TTACCCCGAG, 1.3.
For the sequence CGAATGCTTG, the switch fluorescence ratio is 0.968.
For the sequence GGCGCAGACA, the switch fluorescence ratio turned out to be 1.04.
Consider TGATCGCCTA, for which the switch fluorescence ratio was 0.997.
Turning to AACATAAGTT, the switch fluorescence ratio came to 1.06.
As to TGGTTGAGCT, the switch fluorescence ratio was 1.03.
With ACGGGTATCA, the switch fluorescence ratio is 0.995.
In the case of GTTATGGGAC, the switch fluorescence ratio was determined as 1.01.
Turning to GATTCCGTCA, the switch fluorescence ratio was 1.08.
Regarding GTGATGAATC, the switch fluorescence ratio amounted to 0.931.
As to CGCACGTAA, the switch fluorescence ratio stood at 1.33.
With CCATCTAAGG, the switch fluorescence ratio is 0.967.
Next, CCCACGTCTA: 1.33; TAATTCTCA: 1.01; CTGGAGTTGT: 1.08.
With CGGCCCGCAG, the switch fluorescence ratio was found to be 1.62.
As for ATTACGCTCG, the figure is 0.987.
As to GCGGCTAAAT, the switch fluorescence ratio worked out at 1.03.
As for GCTCCCACAT, the figure is 1.57; as for TGCGTCAGCA, 0.972.
With AAATGGATGG, the switch fluorescence ratio was found to be 0.946.
AAGAGGGCG: the switch fluorescence ratio came to 1.08.
CGAGACGCAC: the switch fluorescence ratio stood at 1.89.
With TCCTAGAGGT, the switch fluorescence ratio amounted to 1.02.
On to TCTTGTGCAG, for which the switch fluorescence ratio is 0.983.
For TTGTTGGAAA, the switch fluorescence ratio came out at 0.992.
For the sequence TGTGGGGTGA, the switch fluorescence ratio stood at 0.96.
As to CATGGTCAGC, the switch fluorescence ratio was 1.01.
As to TATCGAACGT, the switch fluorescence ratio was 0.976.
For the sequence TTGAGAGCTC, the switch fluorescence ratio is 0.942.
Consider TACATTGCGG, for which the switch fluorescence ratio is 0.986.
For the sequence CTGTTTAGGC, the switch fluorescence ratio was 0.98.
As to TTTAGGTCTC, the switch fluorescence ratio came to 0.993.
As to TATCCGGGAA, the switch fluorescence ratio worked out at 1.01.
With TATTTCGGTA, the switch fluorescence ratio is 1.03.
Take GGGTGCGACC: the switch fluorescence ratio was 1.01.
ATAAGTGCTA: the switch fluorescence ratio was found to be 0.945.
Regarding GCTAGGTTAA, the switch fluorescence ratio was 1.02.
For the sequence GGTTCGCGCA, the switch fluorescence ratio came out at 0.988.
Take CCTGTCGGCT: the switch fluorescence ratio stood at 1.
Next, ACTTAATAT: 1.07; AACCCGCGCA: 1.38; CTAGTACGCA: 1.08.
Consider AAGATGATAT, for which the switch fluorescence ratio was 0.974.
Take CATTACCCTC: the switch fluorescence ratio came to 1.
Take GTGACACGA: the switch fluorescence ratio was found to be 1.02.
With ATGCTCATTA, the switch fluorescence ratio was 1.03.
Consider CTGCAACGCT, for which the switch fluorescence ratio was 1.12.
As for TGGCTCCTAA, the figure is 0.972; as for TGTGACCGTT, 1.04.
Regarding ACTCGGATTT, the switch fluorescence ratio amounted to 0.986.
AAGACCGTAG: the switch fluorescence ratio was 0.957.
As for ACATATGGAC, the figure is 1.04; as for GCGGCGATTG, 1.04.
Turning to GGATGTATGT, the switch fluorescence ratio was 1.04.
Next, GTTTAGCGGC: 1.
